# This is one part of the list.
# B1: GS13455A-bfa-343-25-343 (Bacteroides fragilis) (protein)
# chain: KDEIQIVDQDTSWQMDNKYIEEDIREQLGIDPFTDLVYLGYYGNPYTQLEAINDLVNTTLVGKNELSFKVKVTKPYKEDIKVNLMKEDKLVTDFPEMAEGIPLFPSENCTFEGGVLKAGELETTVKLTLKDVEKLNNLSGYVMAIKLTMEGSHEHLAIARTRSSYFVKLNLSIRLDNIDSSNKKIEGKGFNKEISFKSDIRPDKLGSLNDGNFTANNWYTSNANNYLTIILPEKQSLKGFRLDTNTSPSGSYMLKSCRVMVETPDGNWVNHGVFDRKSMDGIAYISFKKPVECTKVRFENMMAFNGRFSVDVNEVTAFR
# Experiments:
# Test in all cases: glycan array binding signal (z-score within array); higher = stronger binding
# Settings in all cases: glycan notation: IUPAC condensed, linker removed
# [1] = molecular target: Neu5Ac(a2-6)Gal(b1-4)GlcNAc(b1-2)Man(a1-3)[Neu5Ac(a2-3)Gal(b1-4)GlcNAc(b1-2)Man(a1-6)]Man(b1-4)GlcNAc(b1-4)GlcNAc
# In short: (§1)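 Glycan array data came from 3228 arrays in the Consortium for Functional Glycomics database, and only arrays with an available protein sequence were kept. Glycan names were put into IUPAC-condensed notation, and columns mapping to the same glycan were averaged. The binding signal is a within-array Z-score, averaged across arrays of one protein sequence run at different concentrations or buffers and across linkers. A negative Z-score can be read as non-binding.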
# [2] = molecular target: Neu5Ac(a2-6)Gal(b1-4)GlcNAc(b1-2)Man(a1-3)[Neu5Ac(a2-6)Gal(b1-4)GlcNAc(b1-2)Man(a1-6)]Man(b1-4)GlcNAc(b1-4)GlcNAc
# In short: as §1
# [3] = molecular target: Neu5Ac(a2-6)Gal(b1-4)GlcNAc(b1-2)Man(a1-3)[Neu5Ac(a2-6)Gal(b1-4)GlcNAc(b1-2)Man(a1-6)]Man(b1-4)GlcNAc(b1-4)[Fuc(a1-6)]GlcNAc
# In short: as §1
# [4] = molecular target: Neu5Ac(a2-6)Gal(b1-4)GlcNAc(b1-2)Man(a1-6)Man(b1-4)GlcNAc(b1-4)GlcNAc
# In short: as §1
# [5] = molecular target: Neu5Ac(a2-6)Gal(b1-4)GlcNAc(b1-2)Man(a1-6)[Gal(b1-4)GlcNAc(b1-2)Man(a1-3)]Man(b1-4)GlcNAc(b1-4)GlcNAc
# In short: as §1
# [6] = molecular target: Neu5Ac(a2-6)Gal(b1-4)GlcNAc(b1-2)Man(a1-6)[GlcNAc(b1-2)Man(a1-3)]Man(b1-4)GlcNAc(b1-4)GlcNAc
# In short: as §1
# [7] = molecular target: Neu5Ac(a2-6)Gal(b1-4)GlcNAc(b1-2)Man(a1-6)[Man(a1-3)]Man(b1-4)GlcNAc(b1-4)GlcNAc
# In short: as §1
# [8] = molecular target: Neu5Ac(a2-6)Gal(b1-4)GlcNAc(b1-2)[Neu5Ac(a2-6)Gal(b1-4)GlcNAc(b1-4)]Man(a1-3)[GlcNAc(b1-4)][Neu5Ac(a2-6)Gal(b1-4)GlcNAc(b1-2)[Neu5Ac(a2-6)Gal(b1-4)GlcNAc(b1-6)]Man(a1-6)]Man(b1-4)GlcNAc(b1-4)GlcNAc
# In short: as §1
# [9] = molecular target: Neu5Ac(a2-6)Gal(b1-4)GlcNAc(b1-2)[Neu5Ac(a2-6)Gal(b1-4)GlcNAc(b1-4)]Man(a1-3)[GlcNAc(b1-4)][Neu5Ac(a2-6)Gal(b1-4)GlcNAc(b1-4)Man(a1-6)]Man(b1-4)GlcNAc(b1-4)GlcNAc
# In short: as §1
# [10] = molecular target: Neu5Ac(a2-6)Gal(b1-4)GlcNAc(b1-2)[Neu5Ac(a2-6)Gal(b1-4)GlcNAc(b1-6)]Man(a1-6)[Neu5Ac(a2-6)Gal(b1-4)GlcNAc(b1-2)Man(a1-3)][GlcNAc(b1-4)]Man(b1-4)GlcNAc(b1-4)GlcNAc
# In short: as §1
# [11] = molecular target: Neu5Ac(a2-6)Gal(b1-4)GlcNAc(b1-3)Gal(b1-3)GlcNAc
# In short: as §1
# [12] = molecular target: Neu5Ac(a2-6)Gal(b1-4)GlcNAc(b1-3)Gal(b1-4)GlcNAc
# In short: as §1
# [13] = molecular target: Neu5Ac(a2-6)Gal(b1-4)GlcNAc(b1-3)Gal(b1-4)GlcNAc(b1-2)Man(a1-3)[Neu5Ac(a2-6)Gal(b1-4)GlcNAc(b1-3)Gal(b1-4)GlcNAc(b1-2)Man(a1-6)]GalNAc
# In short: as §1
# [14] = molecular target: Neu5Ac(a2-6)Gal(b1-4)GlcNAc(b1-3)Gal(b1-4)GlcNAc(b1-3)Gal(b1-4)GlcNAc
# In short: as §1
# [15] = molecular target: Neu5Ac(a2-6)Gal(b1-4)GlcNAc(b1-3)Gal(b1-4)GlcNAc(b1-3)Gal(b1-4)GlcNAc(b1-2)Man(a1-3)[Neu5Ac(a2-6)Gal(b1-4)GlcNAc(b1-3)Gal(b1-4)GlcNAc(b1-3)Gal(b1-4)GlcNAc(b1-2)Man(a1-6)]GalNAc
# In short: as §1
# [16] = molecular target: Neu5Ac(a2-6)Gal(b1-4)GlcNAc(b1-3)Gal(b1-4)GlcNAc(b1-3)GalNAc
# In short: as §1
# [17] = molecular target: Neu5Ac(a2-6)Gal(b1-4)GlcNAc(b1-3)Gal(b1-4)GlcNAc(b1-3)[Neu5Ac(a2-6)Gal(b1-4)GlcNAc(b1-3)Gal(b1-4)GlcNAc(b1-6)]GalNAc
# In short: as §1
# [18] = molecular target: Neu5Ac(a2-6)Gal(b1-4)GlcNAc(b1-3)Gal(b1-4)GlcNAc(b1-6)[Gal(b1-3)]GalNAc
# In short: as §1
# [19] = molecular target: Neu5Ac(a2-6)Gal(b1-4)GlcNAc(b1-3)Gal(b1-4)[Fuc(a1-3)]GlcNAc(b1-3)Gal(b1-4)[Fuc(a1-3)]GlcNAc
# In short: as §1
# [20] = molecular target: Neu5Ac(a2-6)Gal(b1-4)GlcNAc(b1-3)GalNAc
# In short: as §1
# [21] = molecular target: Neu5Ac(a2-6)Gal(b1-4)GlcNAc(b1-3)[Neu5Ac(a2-6)Gal(b1-4)GlcNAc(b1-6)]GalNAc
# In short: as §1
# [22] = molecular target: Neu5Ac(a2-6)Gal(b1-4)GlcNAc(b1-6)GalNAc
# In short: as §1
# [23] = molecular target: Neu5Ac(a2-6)Gal(b1-4)GlcNAc(b1-6)[Gal(b1-3)GlcNAc(b1-3)]Gal(b1-4)Glc
# In short: as §1
# [24] = molecular target: Neu5Ac(a2-6)Gal(b1-4)GlcNAc(b1-6)[Gal(b1-3)]GalNAc
# In short: as §1
# [25] = molecular target: Neu5Ac(a2-6)Gal(b1-4)GlcNAc6S
# In short: as §1
# Neu5Ac(a2-6)GalNAc = molecular target: Neu5Ac(a2-6)GalNAc
# In short: as §1
# [26] = molecular target: Neu5Ac(a2-6)GalNAc(b1-4)GlcNAc
# In short: as §1
# [27] = molecular target: Neu5Ac(a2-6)GalNAc(b1-4)GlcNAc6S
# In short: as §1
# [28] = molecular target: Neu5Ac(a2-6)GlcNAc(b1-4)GlcNAc
# In short: as §1
# [29] = molecular target: Neu5Ac(a2-6)GlcNAc(b1-4)GlcNAc(b1-4)GlcNAc
# In short: as §1
binder,measurement,setting,value
B1,glycan array binding signal (z-score),[1],-0.17
same,glycan array binding signal (z-score),[2],-0.361
same,glycan array binding signal (z-score),[3],-0.034
same,glycan array binding signal (z-score),[4],-0.353
same,glycan array binding signal (z-score),[5],-0.3
same,glycan array binding signal (z-score),[6],-0.541
same,glycan array binding signal (z-score),[7],-0.043
same,glycan array binding signal (z-score),[8],-0.595
same,glycan array binding signal (z-score),[9],-0.261
same,glycan array binding signal (z-score),[10],-0.774
same,glycan array binding signal (z-score),[11],-0.353
same,glycan array binding signal (z-score),[12],-0.228
same,glycan array binding signal (z-score),[13],0.427
same,glycan array binding signal (z-score),[14],-0.765
same,glycan array binding signal (z-score),[15],0.955
same,glycan array binding signal (z-score),[16],-0.338
same,glycan array binding signal (z-score),[17],-0.082
same,glycan array binding signal (z-score),[18],-0.578
same,glycan array binding signal (z-score),[19],0.113
same,glycan array binding signal (z-score),[20],0.453
same,glycan array binding signal (z-score),[21],-0.978
same,glycan array binding signal (z-score),[22],-0.42
same,glycan array binding signal (z-score),[23],-0.866
same,glycan array binding signal (z-score),[24],-0.662
same,glycan array binding signal (z-score),[25],-0.614
same,glycan array binding signal (z-score),Neu5Ac(a2-6)GalNAc,-0.397
same,glycan array binding signal (z-score),[26],-0.322
same,glycan array binding signal (z-score),[27],-0.331
same,glycan array binding signal (z-score),[28],-0.372
same,glycan array binding signal (z-score),[29],0.055

# Source: the supplement of paper PMC8728848
